Target: 4-1BB (human, UniProt Q07011)
Experiment: cell-based or functional assay

B1: 4-1BBL (ligand)
chain: not shown
For B1, the “NF-kB-luciferase signal in single OKT3-stimulated Jurkat T cells” value was 3.8 fold, the “expansion of CMV pp65-specific T cells restimulated with HLA-A*0201^+ pp65-transduced Caco-2 cells” value was 209 fold and the “expansion of P28z-transduced T cells stimulated weekly on LNCaP tumor monolayers” value was 10 fold. For the same binder, the “expansion of Pz1^+ T cells cocultured weekly with LNCaP tumor monolayers” value was 1040 fold enrichment, the “expansion of T cells stimulated weekly with plate-bound OKT3” value was 237 fold greater proliferation and the “in vivo expansion of Pz1^+ T cells in PC3-PSMA tumor bearing mice (bioluminescence)” value was 41 fold higher photon count.

— US20160008398A1, “CONSTITUTIVE EXPRESSION OF COSTIMULATORY LIGANDS ON ADOPTIVELY TRANSFERRED T LYMPHOCYTES” (Memorial Sloan-Kettering Cancer Center, published 2016)
